The values that follow come from PubChem BioAssay AID485344 (National Center for Advancing Translational Sciences (NCATS), 2010).

Each structure is given as a SMILES string. The whole screen tested about 340,000 compounds, of which about 6,900 (2%) were called active. Cut-off read from the data, not from the text of the source: active = inhibition above about 30%; inactive = below that, where a call was filed. The entries are a selection whose mix differs from that of the whole data set. Where no call is shown, the source filed none.

The target in this test is D(2) dopamine receptor (Homo sapiens) (UniProt P14416). Put plainly: HTS Assay for Allosteric Antagonists of the Human D2 Dopamine Receptor: Primary Screen for Antagonists. Note: 0% is about no effect. To be noted: HEK293 TREx D2 cells, calcium flux, dopamine EC80; at 10 µM; stronger effect = higher value. Put shortly: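 Calcium flux kinetic readout in an inducible HEK293 TREx D2 line plated overnight at 30 C. After 180 s compound exposure, an EC80 dopamine challenge follows with another 180 s kinetic read to detect antagonism.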
Sequence of UniProt P14416 (P14416 whole entry, looked up): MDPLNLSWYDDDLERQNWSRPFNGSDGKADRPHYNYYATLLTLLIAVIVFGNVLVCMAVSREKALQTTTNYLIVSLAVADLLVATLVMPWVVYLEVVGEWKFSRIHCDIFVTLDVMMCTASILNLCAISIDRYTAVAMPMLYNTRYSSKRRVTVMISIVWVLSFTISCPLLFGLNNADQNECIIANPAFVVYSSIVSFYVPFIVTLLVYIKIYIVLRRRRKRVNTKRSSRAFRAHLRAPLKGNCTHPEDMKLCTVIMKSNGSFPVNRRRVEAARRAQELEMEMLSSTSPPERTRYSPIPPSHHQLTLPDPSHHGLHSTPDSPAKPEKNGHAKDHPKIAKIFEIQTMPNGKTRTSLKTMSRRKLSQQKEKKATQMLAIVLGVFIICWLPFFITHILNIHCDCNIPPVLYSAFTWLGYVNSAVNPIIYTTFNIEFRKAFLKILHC
Turning to `CCOC(=O)c1ccc(CN(Cc2ccc(Cl)cc2Cl)S(=O)(=O)c2ccc(F)c(C)c2)cc1`, the inhibition is -12.7%.

As to `O=C(COc1ccc(Br)cc1Cl)Nc1ncn[nH]1`, the inhibition is -17.4%. On to `CCc1ccc(NC(=O)CSc2nc(-c3ccccc3Cl)nc3c2Cc2c(CO)cnc(C)c2O3)cc1`, for which the inhibition was determined as 0.886%. Then `COc1ccc(OCC(=O)Nc2ccc3c(c2)nc(CCNC(=O)c2ccco2)n3C)cc1`, with -0.228%. `COc1ccccc1CNC(=O)C1=C(C)C(=O)OC12CCC(C)CC2` (centres undefined): the inhibition was active: 47.4%. Then `CCOc1ccc(CCNC(=O)c2nn(-c3ccc(OC)c(Cl)c3)c(=O)c3c2c2ccccc2n3C)cc1OCC`, with 2.95%. For `COc1cc2[nH]c(=S)nc(NCC3CCCO3)c2cc1OC` (centres undefined), the inhibition was active: 32.5%.

Consider `CN1CC[n+]2c(CN3C(=O)c4ccccc4C3=O)csc21`, for which the inhibition was active: 45.2%.

For `COc1ccc(C2CC(=O)N(Cc3ccc(F)cc3)c3ccccc3S2)cc1OC` (centres undefined), the inhibition is -18.3%. Consider `COc1ccc(OC)c2sc(N3CCN(C(=O)c4ccc5c(c4)CCCC5)CC3)nc12`, for which the inhibition was -1.99%.

As to `CCC1CCc2nc3sc(C(=O)Nc4ccc(C)cc4)c(N)c3cc2C1` (centres undefined), the inhibition was -2.54%. Turning to `CCCCCn1c(=O)[nH]c2cc(C(=O)NCc3ccc(Cl)cc3)ccc2c1=O`, the inhibition amounted to 14.9%. Regarding `COc1ccccc1C(=O)NCCn1cc(SCc2ccc(C)cc2)c2ccccc21`, the inhibition came out at 8.26%. `c1ccc(N2CCN(Cc3cccn3-c3nnc(N4CCN(C5CCCCC5)CC4)s3)CC2)cc1`: the inhibition was determined as 6.87%. With `CCc1ccc(-c2nn(CC(=O)NC3CCCCC3)c3c2cnc2ccc(C)cc23)cc1`, the inhibition was -13.7%. Then `CCc1ccccc1NS(=O)(=O)c1ccc2c(c1)CCN2C(=O)C1CC1`, with 24.3%; and `CCN(c1ccccc1C)S(=O)(=O)c1ccc(N2CCCCS2(=O)=O)cc1`, with 9.73%. Take `CC1CC(C)(C)NC(=S)N1CCC(=O)NCCc1ccc(Cl)cc1` (centres undefined): the inhibition is active: 34.7%.

Take `CCSc1nnc2c(n1)OC1(CCCC1)Nc1ccccc1-2`: the inhibition was active: 38.7%. For `CCOc1cc(N2CCOCC2)c(OCC)cc1NC(=O)C1=COCCO1`, the inhibition was active: 39.1%. For the molecule `O=C(O)c1ccc(Nc2nc3ccccc3n3cnnc23)cc1`, the inhibition was determined as 1.23%.

`Cc1nn(C)c2c1c(C(F)(F)F)cc(=O)n2CC(=O)NCCC(C)C`: the inhibition worked out at 2.88%. For the molecule `Cc1cccc(-c2nc3scc(CCNS(=O)(=O)c4ccc(Oc5ccccc5)cc4)n3n2)c1`, the inhibition is -15.5%. Consider `O=C(Nc1ccc2oc(-c3cccnc3)nc2c1)c1ccc(-c2ccccc2OC(F)(F)F)o1`, for which the inhibition amounted to 0.153%. `COc1ccc(-n2nc(C(=O)Nc3cc(OC)c(OC)c(OC)c3)c(=O)n(C)c2=O)cc1`: the inhibition was -10.9%. For `COc1ccc(-n2nc(C(=O)N3CCN(c4ccc(F)cc4)CC3)c3c4ccccc4n(C)c3c2=O)cc1`, the inhibition is -0.485%. On to `CC1=C(c2ccc(C)cc2)S(=O)(=O)NC1=NCCCN1CCN(c2ccccc2F)CC1`, for which the inhibition turned out to be 16.3%. Next, `CN(C)S(=O)(=O)c1ccc2c(c1)N(CC(=O)NCc1ccc(F)cc1)C(=O)CS2`: -0.23%; `COc1ccc(C)cc1NC(=O)Cn1c(=O)c(C(F)(F)F)nc2ccccc21`: -7.22%. Turning to `Cn1nc(C(F)(F)F)c(C#N)c1N1CCN(c2cccc(C(F)(F)F)c2)CC1`, the inhibition is active: 43.2%.

As to `COc1ccc(Oc2c(C(F)(F)F)oc3c(CN4CCCC(C)C4)c(O)ccc3c2=O)cc1` (centres undefined), the inhibition came to 1.32%.

As to `COc1ccccc1N1CCN(c2ccc(=O)n(CC(=O)NCc3ccc(OC(C)C)cc3)n2)CC1`, the inhibition was -2.32%.

In the case of `O=C(c1cc([N+](=O)[O-])ccc1Cl)N1CCN(c2ccc([N+](=O)[O-])cc2)CC1`, the inhibition is active: 40.8%.

Take `O=C(Nc1ccc2oc(-c3cccnc3)nc2c1)c1ccc(Br)cc1`: the inhibition was -7.84%. In the case of `CC(Sc1nnc(-c2ccccc2F)n1C1CC1)C(=O)NC(N)=O` (centres undefined), the inhibition was active: 45.3%.

Regarding `COc1ccc(NC(=O)Cn2c(=O)n(Cc3nc(-c4ccccc4)no3)c(=O)c3cc4c(cc32)OCO4)c(OC)c1`, the inhibition stood at 4.58%. On to `Cc1ccc(CN2CCCn3nc(C(=O)NC(C)C)cc3C2=O)cc1`, for which the inhibition was -6.03%.

Take `CC(=O)Nc1nonc1-c1nnc(SCC(=O)Nc2cccc(F)c2)n1-c1ccccc1`: the inhibition worked out at 3.52%. Next, `CC(=O)c1ccc(NC(=O)C2Cc3ccccc3N2C(=O)c2ccccc2)cc1` (centres undefined): -13.9%; `Cc1ccc(N2CCN(S(=O)(=O)c3cc(C(=O)Nc4cc(Cl)cc(Cl)c4)ccc3F)CC2C)cc1` (centres undefined): 16.3%.

Take `COC(=O)c1scc(-c2ccc(C)cc2)c1S(=O)(=O)Nc1ccc(F)cc1F`: the inhibition was determined as 4.07%. Consider `Cc1cccc(-n2c(=O)c3c(c4cc(C)ccc4n3C)n(CC(=O)NCC3CCCO3)c2=O)c1` (centres undefined), for which the inhibition was -0.665%. Turning to `Cc1cccc(N2C(=O)C(CC(=O)Nc3ccc(Cl)cc3)N(Cc3ccco3)C2=O)c1` (centres undefined), the inhibition is -7.39%. Then `CCCOc1ccc(C(=O)Nc2cc3c(cc2N2CCOCC2)n(C)c(=O)n3C)cc1`, with -10.4%.

`Cc1oc(-c2cccc(Cl)c2)nc1CS(=O)(=O)CC(=O)NCc1ccccc1Cl`: the inhibition turned out to be 10%.

Take `Cc1ccc2c(c1)c(=O)c1ccccc1n2CCCC(=O)Nc1cc(Cl)ccc1C`: the inhibition was -1.49%. Take `Cc1oc2ccc(O)c(CN3CCN(C)CC3)c2c1C(=O)Nc1cccc(Cl)c1C`: the inhibition was found to be 3.53%.

Turning to `COC(=O)c1ccc(C2c3c(oc4ccccc4c3=O)C(=O)N2c2nc(C)c(C(=O)OC)s2)cc1` (centres undefined), the inhibition was determined as 24.4%. `O=C(Nc1cc(Cl)cc(Cl)c1)c1ccc2c(c1)N(Cc1cccc(Cl)c1)C(=O)c1ccccc1S2=O` (centres undefined): the inhibition worked out at 3.31%.

Turning to `Cc1nn(CC(=O)O)c(=O)c2cc3cc(F)ccc3n12`, the inhibition was 16.5%.

As for `COc1ccc2c(CNCc3cccs3)c(C(=O)O)n(Cc3ccc(C)cc3)c2c1`, the inhibition came out at 17.7%. With `Cc1ccc(C)c(N2CCN(C(=O)c3cc(C)nc4c3c(C)nn4-c3cccc(F)c3)CC2)c1`, the inhibition is -1.25%. As to `CCOc1ccc(C(=O)NCCc2sc(-c3ccc(OC)c(OC)c3)nc2C)cc1`, the inhibition came out at 0.706%.

Consider `Cc1ccccc1OCC(=O)Nc1sc2c(c1C(=O)OC(C)C)CCCC2`, for which the inhibition was -2.37%. Take `CCn1c(C(=O)NCc2ccc(OC(C)C)cc2)cc2oc3ccccc3c21`: the inhibition is -6.66%. Then `CCOc1ccc(-n2c(SCC(=O)N3CCC(C)CC3)nc3c([nH]c4ccccc43)c2=O)cc1`, with -14.5%; and `Cc1cccc(CCNc2ncnc3onc(-c4ccc(Cl)cc4)c23)c1`, with -1.27%; and `S=C(NCCc1ccccc1)N1CCn2cccc2C1c1cccnc1` (centres undefined), with active: 37.3%. Regarding `COC(=O)c1ccc(NC(=O)CN(CCc2ccccc2)S(=O)(=O)c2ccc(OC)cc2)cc1`, the inhibition is -2.33%.
